Consider 38 compounds from PubChem BioAssay AID1745853 (National Center for Advancing Translational Sciences (NCATS), 2022).

Some of the results follow. Further columns of the screen follow, without active or inactive calls.

What all share (assay): Primary Screen for Target Class Profiling of Small Molecule Inhibitors of Methyltransferases
Test [1] addresses Glycine N-methyltransferase (Homo sapiens) (UniProt Q14749). The settings on record: purified enzyme, MTase-Glo SAH luminescence; measured here: GNMT inhibition; at 40 µM; stronger effect = lower value. In short, it runs like this:
(§1)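 Each enzyme was reacted with SAM and its substrate, with compounds tested once at 40 uM; SAH formed was read by MTase-Glo luminescence.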

For test [2], the target named is Guanidinoacetate N-methyltransferase (Homo sapiens) (UniProt Q14353). To be noted: purified enzyme, MTase-Glo SAH luminescence; measured here: GAMT inhibition; at 40 µM; stronger effect = lower value. The gist of the method: as §1
For test [3], the target named is Histamine N-methyltransferase (Homo sapiens) (UniProt P50135). The settings on record: purified enzyme, MTase-Glo SAH luminescence; measured here: HNMT inhibition; at 40 µM; stronger effect = lower value. The gist of the method:
as §1

For test [4], the target named is Nicotinamide N-methyltransferase (Homo sapiens) (UniProt P40261). The settings on record: purified enzyme, MTase-Glo SAH luminescence; measured here: NNMT inhibition; at 40 µM; stronger effect = lower value. The gist of the method: as §1
For test [5], the target named is Phenylethanolamine N-methyltransferase (Homo sapiens) (UniProt P11086). The settings on record: purified enzyme, MTase-Glo SAH luminescence; measured here: PNMT inhibition; at 40 µM; stronger effect = lower value. The gist of the method: as §1
% is set by controls: 0 for no effect and ±100 for the full control effect.

In the case of `CCCNC(=O)N1CCC2(CC1)N(c1ccccc1)C(=O)CS2=O` (configuration not stated), the activity change, negative = inhibition in test [1] was -0.187%; in test [2], -0.066%; in test [3], 1.37%; in test [4], -2.09%; in test [5] it was -1.68%.

As to `CCNC(=O)[C@@H]1CCCN1C(=O)[C@H](CCCN=C(N)N)NC(=O)[C@H](CC(C)C)NC(=O)[C@@H](CC(C)C)NC(=O)[C@H](Cc1ccc(O)cc1)NC(=O)[C@H](CO)NC(=O)[C@H](Cc1c[nH]c2ccccc12)NC(=O)[C@H](Cc1cnc[nH]1)NC(=O)[C@@H]1CCC(=O)N1`, the activity change, negative = inhibition in test [1] was 2.09%; in test [3] it was 1.18%.

In the case of `O=C(Cn1ccc2cc(S(=O)(=O)N3CCCC3)ccc21)NCCCc1ccccc1`, the activity change, negative = inhibition is 4.01% in test [1]; 3.24% in test [2]; -1.85% in test [3]; -3.49% in test [4]; -2.91% in test [5].

`Cc1nc2ncccn2c1C(=O)N[C@H]1CCOC[C@H]1C1CCOCC1`: the activity change, negative = inhibition was 0.98% in test [1]; -0.296% in test [2]; 1.14% in test [3]; 0.5% in test [4]; 3.27% in test [5].

`O=C(NCC1CCCN(C(=O)N2CCCC2)C1)c1ccc(-c2ccccc2)cc1` (configuration not stated): the activity change, negative = inhibition was -11.5% in test [1]; -3.78% in test [2]; -5.29% in test [3]; -13.1% in test [4]; 3.75% in test [5].

On to `C#CCNCc1cc2cc(OCc3ccccc3)ccc2[nH]1`, for which the activity change, negative = inhibition in test [1] was 2.15%; in test [2], 0.361%; in test [3], 9.1%; in test [4], -16.1%; in test [5], 1.47%.

In the case of `CC1CCC(NC(=O)C2(C)Cn3c(cc4sccc43)C(=O)N2CCCc2ccccc2)CC1` (configuration not stated), the activity change, negative = inhibition is -5.91% in test [1]; 2.4% in test [2]; -3.56% in test [3]; -0.44% in test [4]; -5.68% in test [5].

Regarding `Cc1ccc(Cn2c(=O)c3ccccc3n3c(=O)n(Cc4ccccc4C)nc23)cc1`, the activity change, negative = inhibition in test [1] was 5.77%; in test [2], 0.551%; in test [3], 5.12%; in test [4], 1.64%; in test [5], 2.96%.

Regarding `CCC(CC)(NC(=O)C(C)C)C(=O)N[C@@H](CCCN=C(N)N)C(=O)NC1(C(=O)NC(c2ccc(F)cc2)c2ccc(F)cc2)CCCC1`, the activity change, negative = inhibition in test [1] was 4.95%; in test [2] it was 19.4%; in test [3] it was 3.78%; in test [4], -2.05%; in test [5] it was -1.53%.

For `Cc1cc(Nc2ncc(Cl)c(Nc3ccccc3S(=O)(=O)C(C)C)n2)c(OC(C)C)cc1C1CCNCC1`, the activity change, negative = inhibition in test [1] was 0.714%; in test [2], 3.98%; in test [3] it was -2.49%; in test [4] it was -35.7%; in test [5], -19.7%.

With `COc1ccc(Cl)cc1S(=O)(=O)NCCn1c(-c2ccc(F)cc2)nc2ccccc21`, the activity change, negative = inhibition was -1.35% in test [1]; 0% in test [2]; -0.594% in test [3]; -10.5% in test [4]; 3.9% in test [5].

For `COc1ccc(-c2cc(C(=O)Nc3ccc4c(c3)C(=O)N(C)C3=NCCN34)c3ccccc3n2)cc1`, the activity change, negative = inhibition was -2.04% in test [1]; 2.33% in test [2]; 2.39% in test [3]; 1.63% in test [4]; 0.216% in test [5].

As to `CCC(C)NC(=O)c1ccc2c(=O)n(CC(C)C)c3nnc(SCC(N)=O)n3c2c1` (configuration not stated), the activity change, negative = inhibition in test [1] is 5.89%; in test [2] it was 0.96%; in test [3], 11%; in test [4], -1.14%; in test [5], 6.59%.

As for `O=C(Nc1ccc(F)cc1)c1ccc2ccnn2c1`, the activity change, negative = inhibition was -5.91% in test [1]; -6.77% in test [2]; -3.24% in test [3]; -9.81% in test [4]; -11.3% in test [5].

As for `O=C(O)Cc1cc(I)c(Oc2ccc(O)c(I)c2)c(I)c1`, the activity change, negative = inhibition in test [1] was -29.2%; in test [2] it was -5.44%; in test [3] it was 4.35%; in test [4], -46.7%; in test [5], 2.76%.

Turning to `Cc1ccc(C(=O)N2CCC(N3C(=O)c4c(c(C)nn4-c4ccccc4)C3C)CC2)cc1` (configuration not stated), the activity change, negative = inhibition in test [1] is -7.62%; in test [2] it was 1.04%; in test [3], -4.5%; in test [4], -17.1%; in test [5] it was -2.74%.

Take `Cc1ccc(C2=NC3(CCN(C(=O)c4ccc(C)c(C)c4)CC3)ON2)cc1`: the activity change, negative = inhibition in test [1] was -4.95%; in test [2] it was -2.02%; in test [3] it was -4.32%; in test [4], -4.77%; in test [5], -2.12%.

As for `C1CC2(CCN1)CC(OCC1CC1)CCO2` (configuration not stated), the activity change, negative = inhibition in test [1] is -2.38%; in test [2] it was -2.15%; in test [3], -1.31%; in test [4], -4.21%; in test [5], -2.31%.

In the case of `COc1ccc(CNC(=O)C2(C)Cn3cnc(C(=O)NCc4ccc(F)cc4)c3C(=O)N2C2CC2)cc1` (configuration not stated), the activity change, negative = inhibition in test [1] was 0.107%; in test [2], 0%; in test [3], 3.49%; in test [4], -1.34%; in test [5], 4.51%.

Regarding `O=C(C1CC=CC1)N1C[C@@H](COc2cccnc2)[C@H](c2ccccn2)C1`, the activity change, negative = inhibition in test [1] is -8.9%; in test [2], -5.24%; in test [3], -3.87%; in test [4] it was -11.3%; in test [5], -11.8%.

As for `Cc1ccc(-c2cc(-c3ccncc3)c3cncn3c2)cn1`, the activity change, negative = inhibition in test [1] was -40.6%; in test [2] it was -13.1%; in test [3], -17.6%; in test [4], -32.1%; in test [5], -18.1%.

Turning to `CCOc1ccc(C(=O)Cn2nc3n(C(C)C)c(=O)c4ccc(C(=O)NC(C)CC)cc4n3c2=O)cc1` (configuration not stated), the activity change, negative = inhibition in test [1] stood at 5.9%; in test [2], 5.93%; in test [3], 5.79%; in test [4] it was 0.123%; in test [5], 3.55%.

As to `COc1cccc(NC(=O)CSc2nnc3n(CC(C)C)c(=O)c4cc(F)ccc4n23)c1`, the activity change, negative = inhibition was 0.42% in test [1]; 0% in test [2]; 7.51% in test [3]; -1.26% in test [4]; 2.88% in test [5].

For `CCc1cc2c(cc3n2CC(C)(C(=O)NC2CCCCCC2)N(Cc2cccc(Cl)c2)C3=O)s1` (configuration not stated), the activity change, negative = inhibition is 0.768% in test [1]; 0.152% in test [2]; 3.05% in test [3]; -0.529% in test [4]; -0.621% in test [5].

Regarding `CC1(CO)CC2C(O)C(=O)C3(CO)CC3(C)C2C1` (configuration not stated), the activity change, negative = inhibition was 0% in test [1]; 9.64% in test [2]; 6.74% in test [3]; -5.59% in test [4]; 3.44% in test [5].

With `CC(=O)N1CCCN(Cc2nnc(C(=O)N3CCC[C@@H]3c3cccc(F)c3)n2-c2cccnc2)CC1`, the activity change, negative = inhibition in test [1] was -1.87%; in test [2], -2.22%; in test [3] it was -0.332%; in test [4], -8.21%; in test [5], -3.31%.

As for `CN(Cc1ccccc1C(F)(F)F)CC1CCCCC1`, the activity change, negative = inhibition in test [1] is -6.08%; in test [2] it was -5.14%; in test [3], -1.97%; in test [4], -8.36%; in test [5], 2.88%.

As for `CCCCN1C(=O)c2cc(C(=O)NCc3cccs3)nn2CC1(C)C(=O)NC1CCCC1` (configuration not stated), the activity change, negative = inhibition is 8.75% in test [1]; 0.915% in test [2]; -3.6% in test [3]; 7.63% in test [4]; 7.2% in test [5].

With `CS(=O)(=O)N1Cc2ccccc2CC2(CCN(Cc3ccccn3)C2)C1` (configuration not stated), the activity change, negative = inhibition in test [1] was -2.93%; in test [2], -0.691%; in test [3], -4.74%; in test [4], 0.236%; in test [5] it was 1.7%.

Consider `O=C(c1ccc(Cl)cc1)N1CC(CO)C2(CCNCC2)C1` (configuration not stated), for which the activity change, negative = inhibition was -5.62% in test [1]; -6.21% in test [2]; -2.23% in test [3]; -6.04% in test [4]; -4.04% in test [5].

Consider `Cc1cccc(CC(=O)N[C@@H]2CN(c3ccncn3)C[C@H]2CO)c1`, for which the activity change, negative = inhibition was -3.72% in test [1]; 0.281% in test [2]; -2.76% in test [3]; -7.64% in test [4]; -5.61% in test [5].

On to `CCC(C)(C)C(=O)NCCc1noc(-c2ccccc2)n1`, for which the activity change, negative = inhibition in test [1] was 0.307%; in test [2], 0.711%; in test [3], 2.73%; in test [4], -2.29%; in test [5], -2.02%.

Consider `CC1(COc2ccccc2)COc2ccc(C(=O)N3CCN(c4ccccn4)CC3)cc2N1` (configuration not stated), for which the activity change, negative = inhibition in test [1] was -3.69%; in test [2], -1.23%; in test [3], -2.1%; in test [4], -2.66%; in test [5], -0.783%.

On to `CC(C)c1nccn1CCCNC(=O)c1ccc(-c2cccc(F)c2)nc1`, for which the activity change, negative = inhibition in test [1] is -2.95%; in test [2], -1.06%; in test [3], -60.6%; in test [4] it was -9.57%; in test [5], -19.1%.

`NCc1ccc(OCCCc2sc(-c3ccc4c(c3)/C(=N/Nc3nc5ccccc5s3)CCC4)nc2C(=O)O)cc1`: the activity change, negative = inhibition in test [1] is -17.9%; in test [2] it was -10.8%; in test [3] it was -13.1%; in test [4], -33.4%; in test [5], -22.3%.

Turning to `O=C1CN(Cc2cc3cc4c(cc3[nH]c2=O)OCO4)CCCN1`, the activity change, negative = inhibition in test [1] is -6.83%; in test [2], -5.84%; in test [3], -2.85%; in test [4], -9.89%; in test [5], -7.52%.

Turning to `COCCOC1CCN(C(=O)c2[nH]nc3c2COc2ccccc2-3)CC1`, the activity change, negative = inhibition is -31.6% in test [1]; -6.19% in test [2]; -2.93% in test [3]; -10.4% in test [4]; -9.14% in test [5].

`CC1(C(=O)NCc2ccccc2)Cn2c(cc3ccccc32)C(=O)N1CCCc1ccccc1` (configuration not stated): the activity change, negative = inhibition in test [1] was -7.13%; in test [2], -0.989%; in test [3], -6.37%; in test [4] it was -13.3%; in test [5] it was -6.9%.
